Source: US20240360208A1
Results are given in words; binding and its absence hold for the method and conditions named. Some results given as binding are weak or reduced against the parent protein; the word gives no strength.

By UniProt entry, the sequences of proteins in these tests, tags left out. Where a name states a change or a piece, a line headed by the entry shows the natural chain unless it says otherwise.
UniProt P13500: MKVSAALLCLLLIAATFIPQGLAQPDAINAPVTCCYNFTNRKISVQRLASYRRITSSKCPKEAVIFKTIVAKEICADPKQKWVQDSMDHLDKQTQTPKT

Assays:
huCCL13 wild type = experiment: SPR (Biacore T200), 25 °C, ACES pH 7.4; antibody captured on anti-human IgG (Fc), chemokine injected at 5 nM and 20 nM
[1] = molecular target: human CCL2 (MCP1) - wild type (wt) (human) (UniProt P13500); experiment: SPR, C1 chip, anti-human Fc capture, 25 C, pH 7.4, Langmuir 1:1
[2] = molecular target: human CCL2 (MCP1) - wild type (wt) (human) (UniProt P13500); experiment: SEC-MALLS of 1:1 antibody:CCL2 mixes; + low quantity of multi-/oligomers

| binding (huCCL13 wild type) | binding [1] | binding [2] | Binder |
| --- | --- | --- | --- |
| no binding (tested: 20 nM) |  |  | Humanized 11K2 (=11K2) (antibody, IgG1, V domains shown) VH: QVQLVQSGAEVKKPGSSVKVSCKASGLTISDTYMHWVRQAPGQGLEWMGRIDPANGNTKFDPKFQGRVTITADTSTSTAYMELSSLRSEDTAVYYCARGVFGFFDYWGQGTTVTVSS VL: DIQMTQSPSSLSASVGDRVTITCKATEDIYNRLAWYQQKPGKAPKLLISGATSLETGVPSRFSGSGSGTDYTLTISSLQPEDFATYYCQQFWSAPYTFGGGTKVEIK |
| no binding (tested: 20 nM) |  |  | 1A5 (antibody, IgG1, V domains shown) VH: QEQLVESGGDLVKPEGSLTLTCTASGFSFSTSYWMCWVRQAPGKGLELIACISSSIGVTYYASWAEGRFTISKTSSTTVTLQMTSLTVADTATYFCARTTDDNWNVGFNLWGPGTLVTVSS VL: AYDMTQTPASVEVGVGGTVTIKCQASQSIGNRYLSWYQQKPGQPPKLLIYGTSTLASGVSSRFKGSGSGTQFTLTISGVESADSATYYCQQGATISYLDNAFGGGTEVVVK |
|  | binds |  | 1A4//2F6-PGLALA (bispecific antibody, V domains shown) VH 1: QSLEESGGDLVKPGASLTLTCTASELDFYWICWVRQAPGKGLEWIACIGAGSSGSTYYASWAKGRFTVSKTSSTTVTLQMTSLTAADTATYFCARTGTEFTYYSLWGPGTLVTVSS VL 1: ALVMTQTPSSVSAAVGGTVTINCQASQSVYNNNMAWYQQKPGQPPKLLIYTASSLASGVPSHFRGSGSGTQFTLTISDLESDDAATYYCAGYKSYSNDEYGFGGGTEVVVK VH 2: QSLEESGGGLVQPEGSLTLTCTASGFSFNNNYYMCWVRQAPGKGLEWIGCISTDDSNTHYASWAQGRFTISKASSTALTLQVAGLTVADMATYFCARDAHFTSYGYGFDLWGPGTLVTVSS VL 2: DIVMTQTPASVSAAVGGTVSINCRASEDIENLVAWYQQKPGQPPKLLIYQASKLASGVPSRFKGSGSGAEFTLTIGDLESADAATYYCQGDYGSGWIMYSFGGGTDLVVK |
|  | binds | binds | 1A4//2F6-WT IgG1 (bispecific antibody, V domains shown) VH 1: QSLEESGGDLVKPGASLTLTCTASELDFYWICWVRQAPGKGLEWIACIGAGSSGSTYYASWAKGRFTVSKTSSTTVTLQMTSLTAADTATYFCARTGTEFTYYSLWGPGTLVTVSS VL 1: ALVMTQTPSSVSAAVGGTVTINCQASQSVYNNNMAWYQQKPGQPPKLLIYTASSLASGVPSHFRGSGSGTQFTLTISDLESDDAATYYCAGYKSYSNDEYGFGGGTEVVVK VH 2: QSLEESGGGLVQPEGSLTLTCTASGFSFNNNYYMCWVRQAPGKGLEWIGCISTDDSNTHYASWAQGRFTISKASSTALTLQVAGLTVADMATYFCARDAHFTSYGYGFDLWGPGTLVTVSS VL 2: DIVMTQTPASVSAAVGGTVSINCRASEDIENLVAWYQQKPGQPPKLLIYQASKLASGVPSRFKGSGSGAEFTLTIGDLESADAATYYCQGDYGSGWIMYSFGGGTDLVVK |
| no binding (tested: 20 nM) |  |  | 1G9 (antibody, IgG1, V domains shown) VH: QSLEESGGDLVKPGASLTLTCKASGIDFSLYSYMCWVRQAPGKGLEWIACVDAGASGSTYYASWAKGRFTISKTSSTTVTLQMTSLTAADTATYFCARGILYYTWPYPAGAIDAFDSWGPGTLVTVSS VL: AYDMTQTPASVSEPVGGTVTIKCQASESISNYLSWYQQKPGQPPKLLIYKASTLASGVPSRFKGSGSGTEYTVTISGVQSDDAATYYCQQSYSSSNVFNTFGGGTEVVVK |
